Reference: PubChem BioAssay AID485344 (National Center for Advancing Translational Sciences (NCATS), 2010)
Hit rate of the full screen: of about 340,000 compounds, about 6,900 (2%) were called active. Cut-off read from the data, not from the text of the source: active = inhibition above about 30%; inactive = below that, where a call was filed. This is a selection; strong and weak results do not stand in their true shares. Where no call is shown, the source filed none.
Note: 0% is about no effect.

The compounds below were run against D(2) dopamine receptor (Homo sapiens) (UniProt P14416) (assay: HTS Assay for Allosteric Antagonists of the Human D2 Dopamine Receptor: Primary Screen for Antagonists). Settings: HEK293 TREx D2 cells, calcium flux, dopamine EC80; at 10 µM; stronger effect = higher value.
UniProt P14416, sequence (P14416 whole entry, looked up): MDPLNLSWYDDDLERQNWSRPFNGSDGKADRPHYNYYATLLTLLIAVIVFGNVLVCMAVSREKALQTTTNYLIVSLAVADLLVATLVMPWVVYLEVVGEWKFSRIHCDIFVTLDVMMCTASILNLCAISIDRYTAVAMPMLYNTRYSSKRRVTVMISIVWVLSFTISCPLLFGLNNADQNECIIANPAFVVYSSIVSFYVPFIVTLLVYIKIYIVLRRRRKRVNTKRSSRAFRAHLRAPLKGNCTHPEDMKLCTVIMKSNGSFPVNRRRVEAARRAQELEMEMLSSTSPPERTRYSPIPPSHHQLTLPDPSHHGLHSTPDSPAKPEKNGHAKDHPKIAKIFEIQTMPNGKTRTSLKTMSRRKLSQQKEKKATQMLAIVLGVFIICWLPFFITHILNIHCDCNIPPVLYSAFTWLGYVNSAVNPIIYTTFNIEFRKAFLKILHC
In short: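 Antagonism is scored as inhibition of an EC80 dopamine-evoked calcium signal in a force-coupled, tetracycline-inducible HEK293 T-REx D2 line, with compound present 180 s before agonist.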
For `OCCC1CN(Cc2cccn2-c2ncccn2)CCN1Cc1ccccc1` (configuration not stated), the inhibition was active: 30.6%. Work on `Cc1cn2c(=O)cc(COc3cc(C)c(Cl)c(C)c3)nc2s1` yielded an inhibition of -7.96%. Compound `Cc1cc(C)cc(NC(=O)c2sc3nc(-c4ccccc4)cn3c2C)c1` has an inhibition of 24.7%. Work on `CC(=O)Nc1nonc1-c1nnc(SCc2ccc(F)cc2Cl)n1C` yielded an inhibition of 16%. In the case of `Cc1ccc(NC(=O)CN2Cc3ccccc3C2=O)c(C)c1`, the inhibition is reported as 12.2%. In the case of `CCOC(=O)c1cccc(NC(=O)CCS(=O)(=O)c2ccc(Br)s2)c1`, the inhibition is reported as -12.9%. For `COc1ccc(NC(=O)c2cc(-c3ccc4c(c3)OCO4)on2)c(OC)c1`, the inhibition was 7.62%. `Cc1c(C)n(Cc2ccc(F)cc2)c2ccc(C(=O)N3CCN(c4ccc(Cl)cc4)CC3)cc12` was tested, and the inhibition was -0.204%. Work on `COc1ccc(/C=C/C(=O)Nc2ccc3nc(N4CCC(C)CC4)cc(C)c3c2)cc1OC` yielded an inhibition of 4.16%. With `Cn1c(=O)c2c(nc(SCC(=O)Nc3ccc(F)cc3F)n2Cc2ccccc2)n(C)c1=O` the inhibition was 7.94%. With `CC1(C(=O)NC2CCCCC2)Cc2ccccc2C(=O)N1Cc1ccc(Cl)cc1` (configuration not stated) the inhibition was -2.3%. `CCCn1c2ccccc2c2cnn(CC(=O)Nc3cccc(C(=O)OCC)c3)c(=O)c21` showed an inhibition of -9.52%. `CCOc1ccc(CNC(=O)CN2C(=O)CCn3nc(-c4cn(C)c5ccccc45)cc32)cc1OC` gave an inhibition of -7.84%. `CN(CCOc1ccccc1)CC(O)COc1ccccc1` (configuration not stated) was tested, and the inhibition was active: 51%. For `O=C(NCc1cccs1)c1nn(-c2ccccc2)nc1CO`, the inhibition was -7.51%. In the case of `COc1ccc(CCNC(=O)Cc2c(C)c3c(cc(C)c4c(C)c(C)oc43)oc2=O)cc1OC`, the inhibition is reported as 12.9%. Compound `Cc1ccc(NC(=O)Cn2c(=O)n(-c3ccc(C)cc3)c(=O)c3ccc(C(=O)NCc4ccccc4Cl)cc32)cc1` has an inhibition of 4.15%. `Cc1ccc(S(=O)(=O)c2nc(-c3ccco3)oc2SC(C)C)cc1` showed an inhibition of 20.9%. Compound `COc1ccc(C)cc1NC(=O)c1cc2c(s1)-c1ccccc1SC2` has an inhibition of 9.03%. Compound `CC(=O)Nc1cc(C(=O)NCc2ccc(F)cc2)ccc1Sc1ccc(C)cc1` has an inhibition of 9.57%. Work on `CC1CCN(S(=O)(=O)c2ccc3ncn(CC(=O)Nc4ccccc4C(F)(F)F)c(=O)c3c2)CC1` yielded an inhibition of -0.768%. With `Cc1nn(-c2ccccc2)c(-n2cccc2)c1C(=O)NCc1ccccc1Cl` the inhibition was -5.59%. With `CC(=O)Nc1ccc(S(=O)(=O)Nc2ccc(F)c([N+](=O)[O-])c2)cc1` the inhibition was active: 43%. `O=C1CN(C(=O)c2ccc(Cl)cc2Cl)C(c2ccc(F)cc2)c2cc(F)ccc2N1` (configuration not stated) gave an inhibition of 1.76%. With `Cc1cc(OCC(=O)Nc2cnn(CCCC(=O)O)c2)ccc1Cl` the inhibition was 5.29%. In the case of `CN(C)c1ccc(C(CNC(=O)Cc2ccc(Cl)cc2)N2CCOCC2)cc1` (configuration not stated), the inhibition is reported as -7.63%. In the case of `CCOC(=O)C1CCN(C(=O)CSc2n[nH]c(-c3ccccc3Cl)n2)CC1`, the inhibition is reported as 2.91%.
